Measurements published in paper PMC3448802 (Biochemistry, 2012).

B1: pyrene-labeled apoEC112S/L181C([…]) (natural protein)
chain: not shown
modifications: N-(1-pyrene)maleimide on Cys181 (thioether)
B2: pyrene-labeled apoEC112S/V161C([…]) (natural protein)
chain: not shown
modifications: N-(1-pyrene)maleimide on Cys161 (thioether)

Biological target: the molecule itself
Test: pyrene excimer fluorescence

| Protein | binding result |
| --- | --- |
| B1 | binds |
| B2 | binds |
